We go through 57 compounds from the supplement of paper PMC9446081.

About 220 (0.56%) of roughly 39,000 compounds showed activity. The list shows a part of the results.
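Also: static incubation at 37 °C against the wild-type strain, values averaged over two biological replicates.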

This assay relates to Escherichia coli K-12 BW25113. In words: relative growth (OD600 normalised to plate interquartile mean) (fraction); higher = less growth inhibition, active = 0.2 or less. Conditions: 50 µM; LB; incubation time: overnight (16-24 h).
In the case of `COc1ccc(S(=O)(=O)N2C[C@H](O)COC[C@@H]3O[C@H](CC(=O)NCCCN(C)C)CC[C@H]32)cc1`, the relative growth was inactive: 1.02.
The same measure for `C[C@@H](O)C#Cc1ccc2c(c1)O[C@H](CN(C)C(=O)C1CCCCC1)[C@@H](C)CN([C@@H](C)CO)S2(=O)=O`: inactive: 1.02; for `C[C@@H]1CN([C@@H](C)CO)C(=O)Cc2cc(NC(=O)c3ccncc3)ccc2O[C@H]1CN(C)Cc1ccc(-c2ccccc2)cc1`: inactive: 0.986.
For `CO[C@H]1O[C@H](CO)[C@@H](OC(=O)Nc2ccc(Oc3ccccc3)cc2)[C@H](OC(=O)Nc2ccccc2-c2ccccc2)[C@@H]1OC(=O)Nc1ccccc1-c1ccccc1` the value was inactive: 1.04; for `CC(NCCCc1cccc(C(F)(F)F)c1)c1cccc2ccccc12.Cl` (configuration not stated), active: 0.0467.
The same measure for `O=C1OCC=C[C@H]2O[C@@]34C=CCN(CCN5CCOCC5)C(=O)[C@H]3N(CCO)C(=O)[C@@H]4[C@@H]12`: inactive: 1.01; for `Cc1noc(C)c1S(=O)(=O)Nc1ccc2c(c1)C(=O)N([C@@H](C)CO)C[C@@H](C)[C@H](CN(C)C(=O)Nc1ccc3c(c1)OCO3)O2`: inactive: 0.951.
Take `O=C1CC[C@@H](C(=O)O)N1`: the relative growth was inactive: 1.01.
The same measure for `Cc1ccc(S(=O)(=O)Nc2ccc3c(c2)C(=O)N([C@H](C)CO)C[C@H](C)[C@@H](CN(C)S(=O)(=O)c2ccccc2)O3)cc1`: inactive: 1.04.
For `COc1ccc(S(=O)(=O)N(C)C[C@@H]2OCCCC[C@H](C)Oc3ccc(NC(=O)Nc4ccccc4)cc3C(=O)N([C@@H](C)CO)C[C@@H]2C)cc1` the value was inactive: 1.02; for `O=C(C[C@@H]1CC[C@@H]2[C@H](COC[C@@H](O)CN2S(=O)(=O)c2ccccc2)O1)NCc1ccc(-c2ccccc2)cc1`, inactive: 0.914.
`COCC(=O)N1C[C@@H]2OCCN(c3ncccn3)[C@H]2C1`: the relative growth was inactive: 0.997.
For the compound `C[C@@H]1CCCCO[C@@H](CN(C)C(=O)NC2CCCCC2)[C@H](C)CN([C@H](C)CO)C(=O)c2cc(NC(=O)CCC(F)(F)F)ccc2O1`, the relative growth is inactive: 1.02.
As for `C[C@@H]1CN([C@H](C)CO)C(=O)c2cc(NS(=O)(=O)c3ccccc3)ccc2O[C@H]1CN(C)S(=O)(=O)c1cn(C)cn1`, the relative growth is inactive: 0.992.
For the compound `CC(=O)O[C@H]1C[C@@]2(C)[C@H]3CC=C4[C@@H](C[C@@H](O[C@H]5O[C@@H](CO)[C@@H](O)[C@@H](O)[C@@H]5O)[C@@H](O)C4(C)C)[C@@]3(C)CC[C@@]2(C)[C@@H]1C(C)(O)C(=O)CCC(C)(C)O` (some centres not stated), the relative growth was inactive: 1.01.
For `Cc1ccc(S(=O)(=O)Nc2ccc3c(c2)C(=O)N([C@H](C)CO)C[C@H](C)[C@@H](CN(C)C(=O)CCC(F)(F)F)OCCCC[C@@H](C)O3)cc1` the value was inactive: 1.02; for `Nc1nc(=O)n([C@H]2C[C@H](O)[C@@H](CO)O2)cc1O`, inactive: 0.967.
For `CO[C@H]1O[C@H](CO)[C@@H](OC(=O)Nc2ccccc2-c2ccccc2)[C@H](OC(=O)Nc2ccccc2-c2ccccc2)[C@@H]1OC(=O)Nc1ccccc1-c1ccccc1` the value was inactive: 1.07; for `COc1ccc(S(=O)(=O)Nc2ccc3c(c2)C(=O)N([C@H](C)CO)C[C@@H](C)[C@@H](CN(C)C(=O)c2ccccc2)OCCCC[C@H](C)O3)cc1`, inactive: 1.02; for `O=C(NCCO)C1=C[C@H](Oc2ccccc2I)[C@@H](O)[C@H](N(Cc2ccco2)C(=O)Cc2ccccc2)C1`, inactive: 1.04.
For `C[C@@H]1CN([C@H](C)CO)C(=O)c2cccc(NS(C)(=O)=O)c2O[C@@H]1CN(C)C(=O)Nc1ccc(F)cc1` the value was inactive: 0.986; for `C[C@@H]1CCCCO[C@H](CN(C)Cc2ccc(C(F)(F)F)cc2)[C@H](C)CN([C@H](C)CO)C(=O)c2cc(NC(=O)Nc3ccc(F)cc3)ccc2O1`, inactive: 1.01.
`C[C@@H]1CCCCO[C@H](CN(C)Cc2ccccc2)[C@@H](C)CN([C@@H](C)CO)C(=O)c2cc(NC(=O)Nc3ccc(C(F)(F)F)cc3)ccc2O1`: the relative growth is inactive: 0.962.
For `C[C@@H]1CN([C@@H](C)CO)C(=O)c2cc(Br)cnc2O[C@H]1CN(C)C(=O)Nc1ccc2c(c1)OCO2` the value was inactive: 0.995; for `Cc1noc(C)c1NC(=O)Nc1ccc2c(c1)C(=O)N([C@H](C)CO)C[C@H](C)[C@H](CN(C)C(=O)Nc1c(C)noc1C)OCCCC[C@@H](C)O2`, inactive: 0.993; for `C[C@H]1CN([C@@H](C)CO)C(=O)c2cccc(NC(=O)C3CC3)c2O[C@@H]1CN(C)S(=O)(=O)c1cccs1`, inactive: 1.
The same measure for `C[C@H](CO)N1C[C@H](C)[C@H](CN(C)S(=O)(=O)c2cn(C)cn2)Oc2c(NS(=O)(=O)c3ccc(Cl)cc3)cccc2C1=O`: inactive: 0.998.
For `CN(C)CC(=O)N[C@@H]1C=C[C@@H](CC(=O)NCCN2CCCCC2)O[C@H]1CO` the value was inactive: 1.
As for `COc1ccc(S(=O)(=O)Nc2ccc3c(c2)C(=O)N([C@H](C)CO)C[C@@H](C)[C@@H](CN(C)C(=O)NC2CCCCC2)OCCCC[C@@H](C)O3)cc1`, the relative growth is inactive: 0.994.
`C[C@@H]1CN([C@@H](C)CO)C(=O)c2cccc(NC(=O)CCCCCC(=O)Nc3ccccc3N)c2O[C@H]1CN(C)Cc1ccc(-c2ccccc2)cc1`: the relative growth is inactive: 1.01.
As to `COc1cccc(S(=O)(=O)N(C)C[C@@H]2Oc3ncc(C#Cc4ccc(OC)c(OC)c4)cc3C(=O)N([C@H](C)CO)C[C@@H]2C)c1`, the relative growth is inactive: 1.
For `O=C(N[C@H]1CC[C@H](CCNS(=O)(=O)c2ccc(F)cc2)O[C@H]1CO)C1CC1` the value was inactive: 0.991; for `CC=C(C(=CC)c1ccc(O)cc1)c1ccc(O)cc1`, inactive: 0.953.
The same measure for `C[C@H]1CCCCO[C@H](CN(C)S(=O)(=O)c2cn(C)cn2)[C@@H](C)CN([C@@H](C)CO)C(=O)c2cc(NC(=O)Nc3cccc4ccccc34)ccc2O1`: inactive: 1.02; for `COc1ccc(NC(=O)Nc2ccc3c(c2)CC(=O)N([C@H](C)CO)C[C@@H](C)[C@@H](CN(C)Cc2ccc(Oc4ccccc4)cc2)O3)cc1`: inactive: 1.01.
For `C[C@H](CO)N1C[C@H](C)[C@@H](CN(C)Cc2ccc(C(=O)O)cc2)Oc2c(NC(=O)c3cnccn3)cccc2C1=O` the value was inactive: 1; for `CCCC#Cc1cnc2c(c1)C(=O)N([C@@H](C)CO)C[C@H](C)[C@@H](CN(C)S(=O)(=O)c1cccc(OC)c1)O2`, inactive: 1.02.
As to `C[C@@H]1CN([C@H](C)CO)C(=O)c2cccc(NS(=O)(=O)c3ccc(F)cc3)c2O[C@H]1CN(C)Cc1ccc(Oc2ccccc2)cc1`, the relative growth was inactive: 1.02.
The same measure for `CCNC(=O)C[C@H]1CC[C@@H]2[C@H](COC[C@@H](O)CN2C(=O)Nc2c(C)noc2C)O1`: inactive: 1.01.
On to `CN(C)CC(=O)N1[C@@H]2c3ccc(C4=CCCC4)c(=O)n3C[C@H]1[C@H](CO)[C@H]2C(=O)NCC1CC1`, for which the relative growth was inactive: 0.978.
For the compound `C[C@H]1CCCCO[C@@H](CN(C)Cc2ccncc2)[C@@H](C)CN([C@@H](C)CO)C(=O)c2cc(NC(=O)Nc3cccc4ccccc34)ccc2O1`, the relative growth was inactive: 1.02.
The same measure for `COc1ccc(-c2cc(=O)c3c(O)cc(O)c(-c4cc(-c5cc(=O)c6c(O)cc(O)cc6o5)ccc4OC)c3o2)cc1`: inactive: 1.01; for `COc1ccccc1NC(=O)N(C)C[C@@H]1Oc2ncc(Br)cc2C(=O)N([C@@H](C)CO)C[C@H]1C`: inactive: 1.02; for `C[C@H]1CN([C@@H](C)CO)C(=O)Cc2cc(NC(=O)Nc3ccc(C(F)(F)F)cc3)ccc2O[C@@H]1CN(C)C(=O)Nc1ccc2c(c1)OCO2`: inactive: 0.978.
For `CSc1nn(C)c2cnn(C)c(=O)c12` the value was inactive: 0.982; for `C[C@@H]1CN([C@H](C)CO)C(=O)c2cc(NC(=O)Cc3ccccc3)ccc2O[C@@H](C)CCCCO[C@H]1CN(C)Cc1ccc(C(=O)O)cc1`, inactive: 0.926.
For `Cc1ccc(S(=O)(=O)Nc2ccc3c(c2)C(=O)N([C@@H](C)CO)C[C@H](C)[C@H](CN(C)C(=O)Cc2ccccc2)OCCCC[C@@H](C)O3)cc1` the value was inactive: 1.02; for `C[C@H]1CN([C@@H](C)CO)C(=O)c2ccccc2-c2ccccc2CO[C@H]1CN(C)Cc1cccc(C(F)(F)F)c1`, inactive: 1; for `CO[C@@H]1CN(C)C(=O)c2ccc(NS(=O)(=O)c3cccc(C)c3)cc2OC[C@@H](C)N(Cc2cc(F)ccc2F)C[C@H]1C`, inactive: 1.03.
Take `C[C@H]1CN([C@@H](C)CO)C(=O)c2cc(-c3cncnc3)cnc2O[C@H]1CN(C)C(=O)Nc1ccc2c(c1)OCO2`: the relative growth is inactive: 1.01.
On to `C[C@@H]1CN([C@@H](C)CO)C(=O)Cc2cc(NC(=O)Nc3ccc4c(c3)OCO4)ccc2O[C@H]1CN(C)Cc1ccc(-c2ccccc2)cc1`, for which the relative growth is inactive: 1.02.
Turning to `CCC(=O)Nc1ccc2c(c1)C(=O)N(C)C[C@@H](OC)[C@@H](C)CN(C(=O)CN1CCOCC1)[C@H](C)CO2`, the relative growth was inactive: 0.992.
For the compound `C[C@H](CO)N1C[C@H](C)[C@@H](CN(C)Cc2ccc(C(=O)O)cc2)OCCCC[C@H](C)Oc2ccc(NC(=O)Nc3ccc(C(F)(F)F)cc3)cc2C1=O`, the relative growth is inactive: 0.995.
For `O=C(C[C@@H]1CC[C@@H]2[C@H](COC[C@H](O)CN2S(=O)(=O)c2cccc(Cl)c2)O1)NCc1ccncn1` the value was inactive: 0.996; for `Cc1[nH]c(=O)[nH]c(=O)c1S(=O)(=O)N1CCC[C@H](C(=O)NCc2ccc3c(c2)OCO3)C1`, inactive: 1.02; for `O=C(C[C@@H]1C[C@@H]2c3cc(NS(=O)(=O)c4ccc(F)cc4)ccc3O[C@@H]2[C@@H](CO)O1)N1CCOCC1`, inactive: 1.01.
In the case of `C[C@@H]1CCCCO[C@@H](CN(C)S(=O)(=O)c2cccs2)[C@@H](C)CN([C@@H](C)CO)C(=O)c2cc(NS(=O)(=O)c3ccc(Cl)cc3)ccc2O1`, the relative growth was inactive: 1.03.
